Results on one molecule are retold here after US20250000946A1 (WUXI BIOLOGICS IRELAND, published 2025).

Assay [1] has as its target T1, W3XX115-hPro1.ECD.His, IL2Rα ECD (Homo sapiens (Human), UniProt P01589 22-213).
T1 construct: Entry includes the C-terminal 6xHis tag; also called CD25
T1 sequence: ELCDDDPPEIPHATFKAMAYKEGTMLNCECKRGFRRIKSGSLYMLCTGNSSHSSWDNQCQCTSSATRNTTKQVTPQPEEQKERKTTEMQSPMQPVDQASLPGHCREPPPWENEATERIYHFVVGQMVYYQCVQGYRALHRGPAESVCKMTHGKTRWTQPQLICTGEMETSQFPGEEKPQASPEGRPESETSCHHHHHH
The experiment in a line: SPR Biacore 8K; variant captured via anti-human Fc, IL-2Rα ECD-His injected; steady state. The procedure:
IL-2 variants binding affinity to IL-2 receptor were detected by SPR using Biacore 8K. For IL-2Rα binding assay, each variant was captured on anti-human Fc immobilized CM5 sensor chip (cytiva). W3XX115-hPro1.ECD.His at different concentrations were injected over the sensor chip at a flow rate of 30 uL/min for an association phase of 60 s, followed by 90 s dissociation. The chip was then regenerated by 10 mM Glycine-HCl pH1.5 after each binding cycle. For IL-2Rγ binding assay, IL-2 variants were mixed with W369-hPro2.ECD.His as 1:1 before assay, were detected by SPR using Biacore 8K. W3XX115-hPro1.ECD.His was captured on anti-His immobilized CM5 sensor chip (cytiva). The mixture were injected over the sensor chip as described above. The sensorgrams of blank surface and buffer channel were subtracted from the test sensorgrams. The experimental data was fitted by steady state affinity model. Molecular weight of W3XX115-hPro1.ECD.His or W369-hPro1.ECD.His was used to calculate the molar concentration of analyte.
For T3U0.E44-1 and T2U0.E44-33, no binding to IL-2Rα was detected.
For orientation: SPR reads the build-up and loss of mass on a sensor chip optically.

The target in assay [2] is T2, Human IL-2Rβ/γ (intermediate affinity IL-2 receptor) (human, UniProt P14784 27-551; P31785 23-369).
T2 construct: whole, on cells; also called IL-2Rβ/γc; IL-2Rβ (CD122) and γ (CD132)
T2 sequence (looked up) 1: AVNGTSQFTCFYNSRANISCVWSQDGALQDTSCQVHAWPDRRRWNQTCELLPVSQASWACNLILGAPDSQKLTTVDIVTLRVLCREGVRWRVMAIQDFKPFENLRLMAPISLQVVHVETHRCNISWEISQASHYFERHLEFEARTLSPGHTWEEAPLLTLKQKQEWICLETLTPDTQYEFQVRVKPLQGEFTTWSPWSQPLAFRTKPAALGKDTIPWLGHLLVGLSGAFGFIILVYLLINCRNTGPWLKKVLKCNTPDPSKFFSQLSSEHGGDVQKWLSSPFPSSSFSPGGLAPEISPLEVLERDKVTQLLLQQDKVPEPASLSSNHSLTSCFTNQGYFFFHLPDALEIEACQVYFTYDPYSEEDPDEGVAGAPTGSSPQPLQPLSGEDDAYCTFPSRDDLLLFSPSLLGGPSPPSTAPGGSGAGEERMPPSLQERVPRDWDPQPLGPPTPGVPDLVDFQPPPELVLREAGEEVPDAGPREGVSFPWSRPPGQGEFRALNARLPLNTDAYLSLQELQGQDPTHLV
T2 sequence (looked up) 2: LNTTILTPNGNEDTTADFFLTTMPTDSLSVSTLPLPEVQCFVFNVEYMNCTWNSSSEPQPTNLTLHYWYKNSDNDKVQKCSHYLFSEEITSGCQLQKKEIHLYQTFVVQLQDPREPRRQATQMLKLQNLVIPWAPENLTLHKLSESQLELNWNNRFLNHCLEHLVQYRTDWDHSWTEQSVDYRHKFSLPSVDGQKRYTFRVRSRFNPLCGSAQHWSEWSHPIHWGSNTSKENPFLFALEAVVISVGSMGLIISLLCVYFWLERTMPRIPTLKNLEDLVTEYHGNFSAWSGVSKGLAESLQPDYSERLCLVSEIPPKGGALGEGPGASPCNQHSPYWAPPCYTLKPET
The assay can be described thus: FACS, HH cells; EC50 fold vs T2U0.E44-1. The procedure: (§1) Human cutaneous T cell lymphoma HH cells, malignant non-Hodgkin's lymphoma NK92 cells and cutaneous T cell lymphoma MJ20 cells were used for binding assay. They both constitutively express IL-2Rβ (CD122) and […] (CD132), and NK92 and MJ20 also expresses IL-2Rα (CD25). HH, NK92 and MJ20 cells were cultured following ATCC guidance, then transferred to a 96-plate for binding analysis. Cells were incubated with IL-2/Fc fusion proteins at the indicated concentrations for 30 min at 4° C. to avoid internalization. Binding was detected by 2nd antibody of PE-anti-human Fc at 4° C. for another 30 min. The median fluorescence intensity (MFI) on HH and NK92 cells was measured using FACS.
IL-2 variants of T2U0.E44-6 and T2U0.E44-26 were used to construct bivalent variants W3XX115-T2.Z20-1.uIgG4V322 and W3XX115-T2.Z20-2.uIgG4V322 respectively.
(In general: In flow cytometry, cells or beads pass a laser one at a time.)

Assay [3] addresses T2, Human IL-2Rβ/γ (intermediate affinity …). The assay can be described thus: FACS, HH cells. The method, then:
as §1

Assay [4] has the same target. The assay can be described thus: FACS, HH cells; EC50 fold vs T2U0.E44-1. The method, then: as §1
This is another data set of the same source.

Assay [5] concerns the target T3, Human IL-2Rα/β/γ complex (high affinity IL-2 receptor) (human, UniProt P01589 22-272; P14784 27-551; P31785 23-369).
T3 sequence (looked up) 1: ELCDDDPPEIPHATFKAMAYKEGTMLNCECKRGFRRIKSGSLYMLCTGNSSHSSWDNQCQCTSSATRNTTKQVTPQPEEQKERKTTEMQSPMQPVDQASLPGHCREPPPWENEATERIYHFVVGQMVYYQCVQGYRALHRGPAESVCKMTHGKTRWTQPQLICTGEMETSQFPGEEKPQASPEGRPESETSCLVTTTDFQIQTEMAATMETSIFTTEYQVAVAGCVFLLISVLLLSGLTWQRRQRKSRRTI
T3 sequence (looked up) 2: T2 sequence (looked up) 1
T3 sequence (looked up) 3: T2 sequence (looked up) 2
The assay can be described thus: cell-based or functional assay.

Assay [6] addresses T2, Human IL-2Rβ/γ (intermediate affinity …). The experiment in a line: cell-based or functional assay.

Like-named read-outs stand apart in the source and are kept apart here.

B1: W3XX115-T2U0.E44-1.uIgG4V322 (Fc fusion)
chain: [no letters for about 150 residues]ESKYGPPCPPCPAPEAAGGPSVFLFPPKPKDTLMISRTPEVTCVVVDVSQEDPEVQFNWYVDGVEVHNAKTKPREEQFNSTYRVVSVLTVLHQDWLNGKEYKCKVSNKGLPSSIEKTISKAKGQPREPQVYTLPPCQEEMTKNQVSLWCLVKGFYPSDIAVEWESNGQPENNYKTTPPVLDSDGSFFLYSRLTVDKSRWQEGNVFSCSVMHEALHNHYTQKSLSLSLG
heavy: EIQLQQSGPELVKPGASVKVSCKASGYSFTDYNMYWVKQSHGESLEWIGYIDPYNGGTRYNQKFKGKATLTVDKSSSTAFMHLNSLTSEDSAVYYCARNGHWDGAWFAYWGQGTLVTVSAASTKGPSVFPLAPCSRSTSESTAALGCLVKDYFPEPVTVSWNSGALTSGVHTFPAVLQSSGLYSLSSVVTVPSSSLGTKTYTCNVDHKPSNTKVDKRVESKYGPPCPPCPAPEAAGGPSVFLFPPKPKDTLMISRTPEVTCVVVDVSQEDPEVQFNWYVDGVEVHNAKTKPREEQFNSTYRVVSVLTVLHQDWLNGKEYKCKVSNKGLPSSIEKTISKAKGQPREPQVCTLPPSQEEMTKNQVSLSCAVKGFYPSDIAVEWESNGQPENNYKTTPPVLDSDGSFFLVSRLTVDKSRWQEGNVFSCSVMHEALHNHYTQKSLSLSLG
light: DIQMNQSPSSLSASLGDTITITCHASQNINVWLSWYQQKPGNIPKLLIYKASNLHTGVPSRFSGSRSGTGFTLTISSLQPEDIATYYCHQGQSYPFTFGSGTKLEIKRTVAAPSVFIFPPSDEQLKSGTASVVCLLNNFYPREAKVQWKVDNALQSGNSQESVTEQDSKDSTYSLSSTLTLSKADYEKHKVYACEVTHQGLSSPVTKSFNRGEC
notes: WT IL-2, no linker, IgG4 Fc with FALA, one Fab arm (E44 format); also called T20.E44-1; wild-type IL-2
Take B1: the Kd – broadly, the free concentration of one partner at which half of the binding sites on the other are occupied at equilibrium, for simple one-to-one binding – in assay [1] stood at 110 nM. In assay [2], this molecule registered an Affinity reduction of 1 fold. Moreover, in assay [3], the 50% effective concentration (EC50) (in general, the midpoint of the concentration-response curve) was determined as 53.8 nM. In addition, the Affinity reduction in assay [4] is 1 fold. In addition, in assay [5], the “Potency in human Treg EC50” value was 0.0025 nM and the “Potency reduction (Treg)” value amounted to 1 fold. Besides, in assay [6], the “Potency in human CD8+ T EC50” value was 20 nM and the “Potency reduction (CD8+ T)” value was 1 fold.
